Results published in PubChem BioAssay AID488969 (Vanderbilt High Throughput Screening Facility, 2010).
In all, about 110,000 compounds were measured (“z-score”: median about -0.1, highest 2% from about 2 on). Some of the results follow. Calls of active or inactive are those of the source.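 How the source made its calls: active means z-score in the third read window above 3 or below -3; inactive means the rest.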

target: Metabotropic glutamate receptor 8 (Rattus norvegicus) (UniProt P70579); experiment: rat mGluR8 modulators via GIRK flux, primary screen, cell-based, thallium flux, HTS (AID 488969); conditions: HEK293 rat mGluR8, GIRK (G protein-gated inwardly rectifying potassium channel) thallium flux, FluoZin2; at 10 µM; stronger effect = higher value; submaximal glutamate (EC20) added with thallium
Chain of UniProt P70579 (P70579 whole entry, looked up): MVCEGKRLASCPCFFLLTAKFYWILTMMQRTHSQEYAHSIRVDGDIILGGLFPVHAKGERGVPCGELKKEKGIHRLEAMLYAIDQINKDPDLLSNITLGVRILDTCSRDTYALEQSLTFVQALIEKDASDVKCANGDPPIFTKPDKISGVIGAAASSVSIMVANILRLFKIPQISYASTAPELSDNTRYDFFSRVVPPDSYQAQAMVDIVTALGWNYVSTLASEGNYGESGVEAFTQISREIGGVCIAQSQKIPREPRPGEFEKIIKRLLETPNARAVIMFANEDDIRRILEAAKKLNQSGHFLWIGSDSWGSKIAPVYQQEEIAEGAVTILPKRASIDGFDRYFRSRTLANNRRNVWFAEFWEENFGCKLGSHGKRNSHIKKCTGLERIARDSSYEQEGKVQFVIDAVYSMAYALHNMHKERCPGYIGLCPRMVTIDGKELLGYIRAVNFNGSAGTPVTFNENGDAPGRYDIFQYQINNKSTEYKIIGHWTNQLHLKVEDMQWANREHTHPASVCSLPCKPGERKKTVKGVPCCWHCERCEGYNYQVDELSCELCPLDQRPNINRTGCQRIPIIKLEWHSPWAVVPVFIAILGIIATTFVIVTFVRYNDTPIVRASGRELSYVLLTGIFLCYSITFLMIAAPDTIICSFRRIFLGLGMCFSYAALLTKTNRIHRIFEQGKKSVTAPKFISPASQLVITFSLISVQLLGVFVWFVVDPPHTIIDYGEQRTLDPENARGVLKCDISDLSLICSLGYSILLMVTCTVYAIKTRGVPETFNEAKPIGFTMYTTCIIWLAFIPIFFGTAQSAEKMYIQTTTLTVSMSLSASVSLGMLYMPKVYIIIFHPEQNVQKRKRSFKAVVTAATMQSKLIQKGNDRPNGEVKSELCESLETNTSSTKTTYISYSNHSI

Compound	z-score
Nc1nc2c(s1)CC(c1ccccc1)CC2 (stereo not drawn)	-0.255
CCN(CC)S(=O)(=O)c1ccc2c(c1)nc(CCC(=O)OCC(=O)Nc1cc(Cl)cc(Cl)c1)n2C	-0.0198
Cc1ccccc1N1C(=O)c2ccccc2NC1c1ccncc1 (stereo not drawn)	-0.158
O=C(O)c1cc(S(=O)(=O)Nc2ccccc2C(=O)O)ccc1O	-0.576
Cn1nc(C(F)(F)F)c2cc(C(=O)Nc3ccc(F)cc3F)sc21	-0.353
COc1ccc(C)cc1NC(=O)CSc1nnc(CC(=O)Nc2cccc(C(F)(F)F)c2)n1C	-0.324
CC1=CC2=NC(=O)/C(=C\c3ccc(-c4cccc(Cl)c4)o3)C(=N)N2O1	0.0235
COc1cccc(-c2cc(C(=O)N3C(C)CCCC3C)no2)c1 (stereo not drawn)	-0.0336
O=C(NC1CCCC1)C(c1ccccc1F)N(C(=O)Cc1cccs1)c1ccc2c(c1)OCCO2 (stereo not drawn)	-0.283
CC(C)(C)c1nc2ccccc2c(=O)n1N1C(=O)c2ccccc2C1=O	-0.0123
CN(C)c1ccnc(N(Cc2ccccc2)Cc2ccccc2)c1C#N	1.24
Cc1c(-c2ccccc2)nc2ccccc2c1C(=O)Oc1ccc([N+](=O)[O-])cc1	-0.143
CC1=CCC2C(=O)N(c3nc4ccccc4n3C)C(=O)C2C1 (stereo not drawn)	-0.167
COc1ccc(C2c3c(oc4ccccc4c3=O)C(=O)N2CC2CCCO2)cc1 (stereo not drawn)	0.6
CC1CCCC(C)N1C(=O)CSCc1ccc(Cl)cc1 (stereo not drawn)	-0.239
O=C(Nc1nncs1)C(Sc1ccccc1)c1ccccc1 (stereo not drawn)	-0.284
CC12C(=O)N(c3cccc(OC(=O)c4ccco4)c3)C(=O)C1C1c3ccccc3C2c2ccccc21 (stereo not drawn)	0.285
CC(=O)NN1C(=O)c2ccc(Oc3ccc([N+](=O)[O-])cc3)cc2C1=O	-0.00435
COc1ccccc1C1/C(=C(/O)c2ccc(C)cc2)C(=O)C(=O)N1CCN1CCOCC1 (stereo not drawn)	-0.543
COc1ccc(-c2cc(C(=O)OC3CCOC3=O)c3ccccc3n2)cc1 (stereo not drawn)	0.00205
COc1cccc(N2CCN(Cc3nc(N)nc(Nc4ccccc4OC)n3)CC2)c1	-0.203
CCOc1cc(CNCCc2ccc(S(N)(=O)=O)cc2)ccc1OCC(=O)NC(C)(C)C	0.0929
O=[N+]([O-])c1cc(-c2cnc3ccccc3n2)ccc1Oc1ccc(Br)cc1	0.971
CC(=O)c1cccc(NC(=S)NC(=O)c2cccc(Cl)c2)c1	active: 8.71
CCc1nc(N2CCN(C(=O)c3ccccc3)CC2)c(C#N)c2c1COC(C)(C)C2	-1.59
CC1(C)CC(=O)c2c(-c3cccnc3)n[nH]c2C1	0.75
C=CCn1c(-c2csc(-c3ccccc3)n2)n[nH]c1=S	0.103

Compound	z-score
Cn1c(SCC(=O)NCCNC(=O)CSc2nnc(C(F)(F)F)n2C)nnc1C(F)(F)F	0.484
Cc1cc(NC(=O)c2ccc(S(=O)(=O)Nc3ccccc3)cc2)no1	-0.203
COc1ccc(NC(=O)N(Cc2ccc(C)cc2)Cc2cccnc2)c(OC)c1	-0.279
Cc1cc(C)cc(N(C(=O)c2ccccn2)C(C(=O)NC2CCCCC2)c2cccs2)c1 (stereo not drawn)	-0.409
Cc1nnc(Nc2ccc(Cl)cc2)n(N)c1=O	-0.183
Cc1cc(C)c(C)c(S(=O)(=O)NCC(=O)Nc2sc3c(c2C(N)=O)CCCC3)c1C	-0.279
COc1ccccc1NC(=O)N1CCCC1C(=O)Nc1ccc2c(c1)OCO2 (stereo not drawn)	-0.145
COCCn1nnnc1C(C(C)C)N1CCC(Cc2ccccc2)CC1 (stereo not drawn)	0.00487
Cc1cc(=O)[nH]c(N2CCN(C(c3ccccc3)c3ccccc3)CC2)n1	0.968
COC(=O)c1c(NC(=O)CN(c2ccc(C)c(C)c2)S(C)(=O)=O)sc2c1CCCC2	-0.153
O=C1CC(N2CCN(c3cccc(C(F)(F)F)c3)CC2)C(=O)N1c1ccccc1F (stereo not drawn)	0.0327
CC(C)CC(=O)NC(=S)NNC(=O)c1ccc(NC(=O)C2CCCCC2)cc1	-0.269
CC1CCN(S(=O)(=O)c2ccc(NC(=O)Cn3nnc(-c4ccccc4)n3)cc2)CC1	0.0222
CCOCCOC(=O)c1ccc(-n2cncn2)nc1	-0.445
Fc1ccc(CNCc2cccc(Br)c2)cc1	0.0949
COc1cccc(-n2c(C)nn(C)c2=O)c1	0.146
COc1ccc(/C(O)=C(\C#N)c2nc3ccccc3n2C)cc1OC	-0.414
Cc1cc(C)c(NC(=O)CN2C(=O)NC3(CCCCC3)C2=O)c(C)c1	-0.99
COC(=O)c1sc(NC(=S)NC(=O)c2ccccc2)nc1C	2.47
CC(C(=O)c1ccc(-c2ccccc2)cc1)[n+]1ccccc1 (stereo not drawn)	0.48
CC1=NN(c2ccccc2)C(=O)/C1=C\c1ccc(Br)s1	0.15
Cc1ccc(C(=O)CSc2nnc3c4ccccc4nc(C(C)(C)C)n23)cc1	0.285
O=C(CSc1nc2ccccc2c(=O)n1-c1ccccc1)N1CCCc2ccccc21	-0.91
CCOC(=O)Cc1csc(SCC(=O)NC(C)C23CC4CC(CC(C4)C2)C3)n1 (stereo not drawn)	-0.23
Cc1ccc(CSc2ccc3nnc(-c4cccnc4)n3n2)cc1	-0.711
Cc1ccc(Cn2nnc(C(=O)Nc3cc(C)ccc3C)c2N)cc1	-0.277
